Test results reported in the supplement of paper PMC3724861.
The other results are listed elsewhere or left out.

The sequences below were run on T1, Caupolican (Caup) homeodomain DNA-binding domain (assay: PBM E-score (8-mer, recovered from the published 9-mer minima) (E-score (dimensionless, -0.5 to 0.5)); Drosophila protein; higher = stronger relative binding preference, active = 0.31 or more).
T1 sequence: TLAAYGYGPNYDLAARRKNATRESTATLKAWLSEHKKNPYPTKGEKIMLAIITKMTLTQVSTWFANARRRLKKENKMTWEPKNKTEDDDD
In short: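 Caup's homeodomain DNA-binding domain (residues 214-303) was made by in vitro transcription and translation and applied at 100 nM to custom-designed protein binding microarrays. Each value is an enrichment score that gives relative binding preference for a short DNA word, with higher meaning stronger. The 8-mer values were recovered from published 9-mer scores, each of which was the minimum of its two constituent 8-mer scores. A cutoff of 0.31 marks candidate sites.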

Sequence | PBM E-score
ATATAGTG | inactive: 0.187
ACTCGCAC | inactive: -0.119
ACCGCACG | inactive: -0.0659
CCCCTATC | inactive: -0.117
GAAGAGCC | inactive: -0.179
AGTCCGTA | inactive: 0.0629
GCATCCTA | inactive: -0.0512
CAGGAGAC | inactive: -0.0799
CTTTGCAC | inactive: 0.0568
ACATAGCG | inactive: 0.141
GCCGTTAA | inactive: -0.089
AAGAGGTC | inactive: -0.106
ATCAACTG | inactive: 0.0532
ACGAAGTG | inactive: 0.0473
ATTTGTGG | inactive: 0.112
ACCAGACT | inactive: 0.0865
CCTAAAAA | inactive: -0.0628
TGGCAAAA | inactive: 0.023
CCAGTTAC | inactive: 0.0253
ATCCCAGG | inactive: -0.127
CTCGTTCA | inactive: 0.151

Sequence | PBM E-score
GCGTTCAA | inactive: -0.0257
TCAAGTAA | inactive: 0.223
CTTAAATC | inactive: 0.0678
ATAAGCCG | inactive: -0.103
CGCCTCCC | inactive: -0.283
GAAGCTCA | inactive: -0.0994
AATTGGGG | inactive: -0.104
AAAACGGG | inactive: -0.0406
AGGCAGCC | inactive: -0.315
ACTCGAGT | inactive: 0.0146
CACCCAGC | inactive: -0.176
AACCCGTT | inactive: 0.00465
GCTCAGAC | inactive: -0.0786
TAGTTGGA | inactive: 0.0238
AGACGGTA | inactive: -0.0931
TCGGCTAA | inactive: -0.0847
AGAATGAA | inactive: 0.0624
AATCCTGC | inactive: 0.0454
TACAGATA | inactive: 0.222
AAAGAGAT | inactive: 0.00948
CCACCGAC | inactive: -0.106

Sequence | PBM E-score
ATATGGGC | inactive: 0.00884
TAGCTGCA | inactive: -0.0492
AAACGATG | inactive: 0.0787
ACACGGTA | active: 0.327
ACAACGGT | inactive: 0.118
TCAACAAA | inactive: 0.157
GTGCCTGA | inactive: -0.136
AACACATA | active: 0.323
GAAAAGGC | inactive: -0.0658
AACCCGGT | inactive: -0.0602
ATATGCCA | inactive: 0.0058
TACACCGA | inactive: 0.188
CTTGCTTA | inactive: -0.00428
ATCCACCA | ≥ -0.00321
CAAGAGCA | inactive: 0.0574
CCACGCAA | inactive: -0.0519
GAAGAGCA | inactive: -0.0634
ACGCGCAC | inactive: -0.0925
CAAACTTG | inactive: -0.0037
